# Hit rate of the full screen: of about 340,000 compounds, about 12,000 (3.5%) were called active. This list was built around the results that the source calls inconclusive (neither active nor inactive); the mix of calls is not that of the screen. Calls come from the whole dose curve; as a rule, active = well fitted inhibition curve with a large enough effect; inconclusive = small, poorly fitted or top-dose-only effect, or another doubt; inactive = no such curve, though single readings can be large or run the other way. Potencies of inconclusive entries are left out as doubtful fits.
# Assay: qHTS Assay for Inhibitors of Hepatitis C Virus (HCV)
# Details: Huh7.5.1 HCVcc-Cre (HCVcc is cell-culture hepatitis C virus) infection, luciferase reporter, 44 h; activity change, negative = inhibition: at 41.8 µM (top of the series) unless noted
# Method in brief: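 Whole-lifecycle infectious HCVcc-Cre system; cells 1,000/well, compound then virus (~0.5 moi) added 4 h after plating, 44 h culture. Luciferase read 15 sec following 15 min substrate incubation, room temp.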
# % is set by controls: 0 for no effect and ±100 for the full control effect; potency is the fitted concentration of half-maximal effect; tags give direction and shape of the fitted curve.
Structure (SMILES),"activity change, negative = inhibition",Potency
Cc1ccc(/C=C2\Sc3ccccc3C2=O)s1,inactive: -17.3%,
CCOc1cccc(CN(C)CC2CCCN(CCc3ccc(Cl)cc3)C2)c1O (stereo unspecified),,active: 5.01 µM
CN=C1N(C)C[C@@H]2[C@@H]3C(=O)N(Cc4ccccc4)C(=O)[C@@H]3[C@](Cc3ccccc3)(C(=O)OC)N12,,"inconclusive [inhibitor, single point]"
COc1ccc(C(CNC(=O)c2ccc(S(=O)(=O)N(C)C)cc2)N(C)C)cc1 (stereo unspecified),inactive: -4.71%,
CC1CCN(C2=C(NS(=O)(=O)c3ccccc3)C(=O)c3ccccc3C2=O)CC1,inactive: -22.7%,
Nc1nonc1-n1nnc(C(=O)c2ccccc2)c1-c1ccccc1,,"inconclusive [inhibitor, single point]"
Cc1ccc2cc(CN(Cc3ccco3)S(=O)(=O)c3c(C)ccc4nsnc34)c(=O)[nH]c2c1,,"inconclusive [inhibitor, single point]"
Cc1cccc2sc(NC(=O)C3c4ccccc4Oc4ccccc43)nc12,,"inconclusive [inhibitor, full curve, poor fit]"
COc1ccccc1NC(=O)CSc1sc2c(O)cc(=O)[nH]c2c1C#N,inactive: 4%,
COCC(C)n1c(SCC(=O)NC(=O)NCc2ccccc2)nc2ccccc2c1=O (stereo unspecified),,"inconclusive [inhibitor, partial curve]"
Cc1cc(C)cc(C(=O)N(NC(=O)Nc2ccc(Cl)cc2)C(C)(C)C)c1,,"inconclusive [inhibitor, single point]"
O=C(N/N=C/c1sc(=O)n(-c2ccccc2)c1Cl)c1ccccc1,,"inconclusive [inhibitor, full curve]"
CN(C)CCCNC(=O)C[C@H]1C[C@H](C(=O)N2CCCCC2)[C@@]2(CCc3ccccc3)c3[nH]c4cc(-c5ccco5)ccc4c3CCN2C1=O,,"inconclusive [inhibitor, partial curve]"
COc1cc(CC(=O)OCC(=O)c2c[nH]c3ccccc23)cc(OC)c1OC,,"inconclusive [inhibitor, partial curve]"
Cc1coc2cc3oc(=O)c(CCC(=O)NCCCn4ccnc4)c(C)c3cc12,,"inconclusive [inhibitor, partial curve]"
COc1cc(/C=N\NS(=O)(=O)c2ccccc2)cc(OC)c1OC,inactive: 13.4%,
CCOC(=O)N1CCN(C(=O)c2ccc3c(c2)N=C(CC)c2cc(C)ccc2S3)CC1,,"inconclusive [inhibitor, full curve]"
CCN1CCN(c2cc(C)c3cc(NC(=O)CCC(=O)N4CCN(c5ccccc5OC)CC4)ccc3n2)CC1,,"inconclusive [inhibitor, partial curve]"
COc1ccc(-c2cn(/N=C/c3ccc(Cl)cc3Cl)c(N)n2)cc1,,"inconclusive [inhibitor, single point]"
Cc1cc(NC(=O)c2ccc(NC(=O)C(C)C)cc2)no1,,"inconclusive [inhibitor, single point]"
CCCCN(C(=O)c1cc2c(s1)CCC2)c1c(N)n(CCCC)c(=O)[nH]c1=O,,active: 11.2 µM

Structure (SMILES),"activity change, negative = inhibition",Potency
CCN(C(=O)COC(=O)c1oc2ccc(OC)cc2c1C)C1CCS(=O)(=O)C1 (stereo unspecified),,"inconclusive [inhibitor, single point]"
Cc1cc(C2=NNC(=Nc3ccccc3)SC2)c(C)n1C,,"inconclusive [inhibitor, single point]"
O=C(Nc1cc(S(=O)(=O)N2CCOCC2)ccc1Cl)C1CCC1,,"inconclusive [inhibitor, partial curve]"
Cc1nnc(NC(=O)CSc2nccn2-c2ccc(F)cc2)s1,,"inconclusive [inhibitor, single point]"
COc1ccc(N=Cc2c(O)c3ccccc3n2C(C)=O)cc1,,"inconclusive [inhibitor, single point]"
CCN(CC)CC(=O)c1c[nH]c2ccc(C)cc12,inactive: -13.5%,
Oc1cccc(NC(=S)N=Nc2c(O)[nH]c3ccc(Br)cc23)c1,,"inconclusive [inhibitor, full curve, poor fit]"
COc1ccc(/C=N/n2cnn(Cc3ccccc3Cl)c2=S)cc1OC,inactive: -23.8%,
CCC(CC)C(=O)Nc1ccc(Nc2ccccc2)cc1,,"inconclusive [inhibitor, single point]"
COC(=O)c1c(NC(=O)COC(=O)[C@@H](NS(=O)(=O)c2ccc(C)cc2)C(C)C)sc2c1CCC2,,"inconclusive [inhibitor, partial curve]"
COc1cccc(C(=O)Oc2c(Br)cc(Br)cc2/C=N/NC(=O)c2cc(C)[nH]n2)c1,,"inconclusive [inhibitor, single point]"
COc1ccc(NC(=O)N(Cc2cccnc2)Cc2ccccc2Cl)c(OC)c1,,"inconclusive [inhibitor, single point]"
O=C(Nc1ccccc1N1CCOCC1)c1cc(-c2ccncc2)nc2ccccc12,,"inconclusive [inhibitor, partial curve]"
OCCCn1c(C2CCCN2c2nc(-c3ccc(Cl)cc3)cs2)nc2cc(C(F)(F)F)ccc21 (stereo unspecified),,"inconclusive [inhibitor, full curve]"
CCN(CC)S(=O)(=O)c1ccc2oc(SCC(=O)NCc3ccccc3)nc2c1,,"inconclusive [inhibitor, partial curve]"
Cc1ccc(S(=O)(=O)NCCNC(C)c2ccc(Br)cc2)cc1 (stereo unspecified),,"inconclusive [inhibitor, partial curve]"
COc1ccc(CNCC(O)(c2ccc(F)cc2)c2ccc(F)cc2)cc1OC,,"inconclusive [inhibitor, single point]"
Cc1ccc(C2=NN(C(=O)CCl)C(c3ccco3)C2)o1 (stereo unspecified),,active: 8.91 µM
CCCCCCc1cc2cc(C(=O)NC)c(=N)oc2cc1O,inactive: -28.7%,
COc1ccc(-c2nn(-c3ccccc3)cc2/C=N/N2C(=O)CSC2=S)cc1,,"inconclusive [inhibitor, single point]"
